# From article PMC7819943, “Rice protein-binding microarrays: a tool to detect cis-acting elements near promoter regions in rice”
# Some of the results follow.
# Target: T1, OsWOX13 (Oryza sativa, UniProt Q5QMM3 1-267)
# T1 sequence: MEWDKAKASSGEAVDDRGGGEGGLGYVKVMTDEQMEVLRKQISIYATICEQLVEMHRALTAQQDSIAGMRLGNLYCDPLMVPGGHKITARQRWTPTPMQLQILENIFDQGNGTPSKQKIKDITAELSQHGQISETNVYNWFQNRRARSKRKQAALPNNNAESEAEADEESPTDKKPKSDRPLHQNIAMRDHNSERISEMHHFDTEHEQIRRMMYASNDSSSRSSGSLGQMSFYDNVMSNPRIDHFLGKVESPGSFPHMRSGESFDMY
# Experiment: protein-binding microarray (RPBM); PBS, 2% BSA, 51.3 ng/ul salmon testes DNA, 50 uM zinc acetate, 200 nM TF, 25 C, 1 h; high values mean tight binding
# Conditions: protein: recombinant; tags: N-terminal polyhistidine and DsRed monomer fusion (pET32a); label: CyDye5-dUTP incorporated in the synthesized complementary strand; 3' TTTTT single-stranded linker to array surface; dsDNA, one strand shown
# How it was run: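 Ni–NTA purification followed expression in E. coli BL21-CodonPlus of transcription factors fused N-terminally to a polyhistidine tag and DsRed. At 200 nM in PBS with 2% BSA, salmon testes DNA and 50 µM zinc acetate, the protein was incubated for 1 h at 25 °C with a custom Agilent array that had been primer-extended with Cy5-dUTP and blocked with 2% BSA. After washing, the array was read on an Axon 4000B scanner. The binding signal is per-feature fluorescence intensity in arbitrary units.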
row,Sequence,binding signal
1,AAAATTAGATTAGTCCCCTCCTACCCAGCTAACTACTGCTCGGAGTCACCTAGTGCAG,32600 fluorescence intensity (a.u.)
2,GTCGACAAGATTGACCTCGATGTGCCCGCCGCCTGGGATGCGGAGTCACCTAGTGCAG,12600 fluorescence intensity (a.u.)
3,CAGCTGCAATTATTTGATGACGTAATTAAATCGAATTGAGCGGAGTCACCTAGTGCAG,26400 fluorescence intensity (a.u.)
4,ACCACTTAATTTACTTCTTTTCATATGTGATCTCCATGTACGGAGTCACCTAGTGCAG,17600 fluorescence intensity (a.u.)
5,CTGATTGATCCCCTTTGCAGAGTTACGTCCTTGTTAAGCACGGAGTCACCTAGTGCAG,46700 fluorescence intensity (a.u.)
6,GTCGATTTAATAGCTAATTTATACAATATAGTTGTCTATACGGAGTCACCTAGTGCAG,12300 fluorescence intensity (a.u.)
7,CTACTTTTGATTTGATTTGGAGTAGTACACTGATTTGATTCGGAGTCACCTAGTGCAG,26900 fluorescence intensity (a.u.)
8,GCGAATGATGATTGCTGAAAACAAACATCCTGTAGCCCCACGGAGTCACCTAGTGCAG,37300 fluorescence intensity (a.u.)
9,ATGACCAAATTTCTAACAGATACCAAAGGGCAAAATAGACCGGAGTCACCTAGTGCAG,3760 fluorescence intensity (a.u.)
10,TTATAATTAGTGTCCAAACATCCGATGTGATAGGGACTTACGGAGTCACCTAGTGCAG,14200 fluorescence intensity (a.u.)
11,AAAAGCACATGATTATATCTCATTTTATGGTCTTAGAGCACGGAGTCACCTAGTGCAG,3350 fluorescence intensity (a.u.)
12,ACTAATTAACCAGTGGAACTGTTGCTGTTGCTGTCATGCACGGAGTCACCTAGTGCAG,27400 fluorescence intensity (a.u.)
13,TTACTAAATTAGGCGATTTTCGGGGCGTGACAGACCATTTCGGAGTCACCTAGTGCAG,7320 fluorescence intensity (a.u.)
14,TACATTTAAATTTTCCTCAATTATATCATCGTTGGGCAGACGGAGTCACCTAGTGCAG,9470 fluorescence intensity (a.u.)
15,CACAAGATTGGCTACATGGGCATCGAGTAATGTAAATATTCGGAGTCACCTAGTGCAG,9910 fluorescence intensity (a.u.)
16,GGCCTATTCAAATTGATGACATTTTCAACTATACCATTATCGGAGTCACCTAGTGCAG,6840 fluorescence intensity (a.u.)
17,GATAATGACAATTATCCCGTGCGTTCGGATTAAGACGCCCCGGAGTCACCTAGTGCAG,26800 fluorescence intensity (a.u.)
18,ACACAGCAATTATTTCATTATTATTATTACCACACTGACCCGGAGTCACCTAGTGCAG,4230 fluorescence intensity (a.u.)
19,GCTAGATTGCTATATTATGGGACGGAGGGAGTACTATCTACGGAGTCACCTAGTGCAG,9910 fluorescence intensity (a.u.)
20,CCAAATTTAATTTTACCTATTTTAAATGTGGCGATATATCCGGAGTCACCTAGTGCAG,17900 fluorescence intensity (a.u.)
21,TAAATTTATATGGAAATTTATAGTCCGCTTTGGCACCTTGCGGAGTCACCTAGTGCAG,8680 fluorescence intensity (a.u.)

row,Sequence,binding signal
1,CTGAATTACTCAAATCCAGTTACAATTAGCAGAAAACTGGCGGAGTCACCTAGTGCAG,4780 fluorescence intensity (a.u.)
2,GTAATTAGATTTAATCTAATGGGACATGGTTGCATGTAGCCGGAGTCACCTAGTGCAG,39600 fluorescence intensity (a.u.)
3,GAGAATTTGCTACTAATTGACTTACCAATTTGGAATTTACCGGAGTCACCTAGTGCAG,23900 fluorescence intensity (a.u.)
4,AGCCCATAATTATCTGGTCAAATGAATTAAATCATTATTTCGGAGTCACCTAGTGCAG,27800 fluorescence intensity (a.u.)
5,TGAAAATGATGTCAATCAAACATGAGTGGGGCCTGCTTTGCGGAGTCACCTAGTGCAG,38500 fluorescence intensity (a.u.)
6,ACTTAATCCAAATTTGTTATATTAGGAGATGTCACATCCTCGGAGTCACCTAGTGCAG,8800 fluorescence intensity (a.u.)
7,TCAAACAGCTATTAACGTGATCAAACATGCCTAATCTTGGCGGAGTCACCTAGTGCAG,4680 fluorescence intensity (a.u.)
8,CAGTAATCTGTTATCCTAACTGACAGCTGCTTATACCAAACGGAGTCACCTAGTGCAG,22300 fluorescence intensity (a.u.)
9,TGTTTGTGATTTACTTTATTATCAAAAGTATTTTAAGTATCGGAGTCACCTAGTGCAG,6840 fluorescence intensity (a.u.)
10,GACCCAATTAAAGTACAGTAATTTAGCTGAGATTTATCGCCGGAGTCACCTAGTGCAG,15700 fluorescence intensity (a.u.)
11,TTTAATACTCTAAATTAGTATCTAAATACAGGGACTAAAGCGGAGTCACCTAGTGCAG,4580 fluorescence intensity (a.u.)
12,GCTGGATTGAGGGGTGGATAGAGTGCTAGGCGAAATTACCCGGAGTCACCTAGTGCAG,7980 fluorescence intensity (a.u.)
13,TCATAAACTGGAGTTGACAAACTGCTTGGTATACCGGTTACGGAGTCACCTAGTGCAG,14300 fluorescence intensity (a.u.)
14,AGTACATAATTGGGCAAGACAAGGCCCATACAAATAGAGGCGGAGTCACCTAGTGCAG,16900 fluorescence intensity (a.u.)
15,GCTTTAATGGACGATGAATGCCATATTACGTGAATTAGGCCGGAGTCACCTAGTGCAG,12400 fluorescence intensity (a.u.)
16,AGTTTAATTAAAATGTTATGGCGGGCAAGCATTGCGGAAACGGAGTCACCTAGTGCAG,15700 fluorescence intensity (a.u.)
17,ACAAGTTTACTAATTTGAATCAAATTTTGGATGTTTTCATCGGAGTCACCTAGTGCAG,6050 fluorescence intensity (a.u.)
18,TCGTAATGATTCCAGTGCAATCAACAGCTGGATCCTCTTTCGGAGTCACCTAGTGCAG,4590 fluorescence intensity (a.u.)
19,TATATAGATTGCTTCTTCAAGTAAACGAGATCTTTGCTAGCGGAGTCACCTAGTGCAG,20100 fluorescence intensity (a.u.)
20,GGAAGATTAGTTTAATCCGACCCACGCATCGCCATGGACCCGGAGTCACCTAGTGCAG,9120 fluorescence intensity (a.u.)
21,TTGAGAAGTCCATAATTGACTTTTAGATTTTGGAAAAGGGCGGAGTCACCTAGTGCAG,17500 fluorescence intensity (a.u.)
